Where two headings read alike, the source gives them in different places.
B1: DOMAIN_29467 (protein, listed as Mus caroli)
chain: VTYEDVHVNFTQEEWALLDPSQKKLYKDVMLETYRNLNAIGFSWEAQNIEEHCQSFGRHRRCERSQRAEKPSEYTQPDKGFALRAHSHAQRHE
B2: DOMAIN_29471 (protein, listed as Cricetulus griseus)
chain: LTYDDVQINFTSEEWSLLDTSQKNLYKDVMLETYKNLTDIGYTWEDCSIEEHCASSKRKERPKRSQTGEKPSAYTQCAKDFAYS
B3: DOMAIN_1237 (protein)
chain: MLPIVQLYPQGLVSFKDVAVDFTQEEWQQLDPSQRTLYRDVMLENYSHLVSMGYPVSKPDVISKLEQGEEPWIIKGDISNW
modifications: Pan troglodytes
B4: DOMAIN_29511 (protein, listed as Peromyscus maniculatus)
chain: ITYDDVHVNFTWEEWTLLDPFQKNLYKDVMLETYRNLTTIGYSWEDSNIEVHCQSSGRHERHERSHTGEKPSVYTQCVETFAHH
B5: DOMAIN_29614 (protein, listed as Peromyscus maniculatus)
chain: VTYDDVHIDFTWEEWTLLDPSQKNLYKDVMLETYRNLTTVGYSWEDHLIEEHCKSSRKHERHERIPTGEQPSESTQSFRAFAHH
B6: DOMAIN_29616 (protein, listed as Mesocricetus auratus)
chain: VTFEDVAVNFTSGEWALLDSSQKKLYRDVMKETFLNLISIEKGLEPNIEEHYKDFCRNLRTQLVEKDWGYEYNRQWDDNLQT
B7: DOMAIN_29765 (protein, listed as Erinaceus europaeus)
chain: VTYEDVTVTFTQEEWALLNPSEKKLYRDVMWENLRNIFSTGKIQGDNYNEEQHNHQGSKQSCRVVKISGGQKRSQNDEKQRMQSEGKSYECE
B8: DOMAIN_30185 (protein, listed as Rhinopithecus roxellana)
chain: VAFEDVAVNFTQEEWALLDPSQKNLYREVMQETLRNLASIGKKWNNQYIEDEHQNPRRNLRRLIKERLSESKESHQHGEFLTQVPDD
B9: DOMAIN_30211 (protein)
chain: VVFEDVAVNFTLEEWALLDSSQKELYRDVMLETFRNLASVDGETQYKANGSVSQQDIYRNKISKEHKISKFTGNDSWPFVLGKIWEELS
modifications: Bison bison
B10: DOMAIN_30236 (protein, listed as Callithrix jacchus)
chain: VTFEDIAVYFSREEWGLLDEAQRCLYHDVMLENFSLMTSVGCLHGIGAEEAPSEQIVSVETVSQARTPKPSSSIPNAHSCEMCILVMKDILYLTEHQGTLPWQKPYTSAASGKW
B11: DOMAIN_30329 (protein, listed as Macaca mulatta)
chain: LTFEDVAVYFSEEEWQLLDPPEKTLYNDVMQDIYETVISLGLKLKNDTGNDHPISVSTSEIQTSGCKVSKKTRMKIAQKTMGRE
B12: DOMAIN_1242 (protein)
chain: ADITLMSQAQDSRSILFQESVTFEDVAVNFTNREWQCLTYAQRHLYKDVMLENYGNMVSLGFPFPKPPLISHLEREVDPCV
modifications: Pan troglodytes
B13: DOMAIN_31235 (protein)
chain: VTFEDVAVNFSLEEWALLDLSQKKLYRDVMQETFRNLASVGEKWDNHNIEDWNKTQGRKLRSHMVEKLSESKEGGQHGETASQIPNL
modifications: Vicugna pacos
B14: DOMAIN_31383 (protein, listed as Propithecus coquereli)
chain: VTFEDVAVNFTPQEWALLDPSQKNLYRDVMQETLRNLASVGKKWKDQNMEDECKTPRRNLRSVVGERLFTSKEGSQCGETLNLDSHHMLKK
B15: DOMAIN_31638 (protein, listed as Balaenoptera acutorostrata)
chain: VVFEDVAVYFSQEEWGLLDEAQRHLYHAVMTENFALVTSLGCWHGAQDEEAPSEQSISVGMSEVGTPKPDPSTKKGQPYEMCEPLSKDLLHL
B16: DOMAIN_31798 (protein, listed as Notechis scutatus)
chain: VSFEEVAVHFSEEEWSQLDPAQKALHGEVMLENSRNLASLGYNEHGNKNCKEQCQPVDPNEQNRNFADQMQTKIDETNQSQSEVEKTFHSTHH
B17: DOMAIN_32127 (protein, listed as Homo sapiens)
chain: AFEDVAVYFSQEEWGLLDTAQRALYRRVMLDNFALVASLGLSTSRPRVVIQLERGEEPWVPSGTDTTLSRTTYRRRNPGS
B18: DOMAIN_32145 (protein, listed as Homo sapiens)
chain: RESLEDEVTPGLPTAESQELLTFKDISIDFTQEEWGQLAPAHQNLYREVMLENYSNLVSVGYQLSKPSVISQLEKGEEPW
B19: DOMAIN_32146 (protein, listed as Homo sapiens)
chain: ALRSVMFSDVSIDFSPEEWEYLDLEQKDLYRDVMLENYSNLVSLGCFISKPDVISSLEQGKEPWKVVRKGRRQYPDLETK
B20: DOMAIN_1247 (protein)
chain: MRVLTFRDVAVEFSPEEWECLDSAQQHLYRDVMLENYGNLFSLGLAIFKPDLITYLEQRKEPWNARRQKTVAKHPAGSLHF
modifications: Pan troglodytes
B21: DOMAIN_32159 (protein, listed as Homo sapiens)
chain: DSVAFEDVAVNFTQEEWALLSPSQKNLYRDVTLETFRNLASVGIQWKDQDIENLYQNLGIKLRSLVERLCGRKEGNEHRE
B22: DOMAIN_32215 (protein, listed as Homo sapiens)
chain: SQVTFSDVAIDFSHEEWACLDSAQRDLYKDVMVQNYENLVSVGLSVTKPYVIMLLEDGKEPWMMEKKLSKAYPFPLSHSV
B23: DOMAIN_32279 (protein, listed as Homo sapiens)
chain: EETQGELTSSCGSKTMANVSLAFRDVSIDLSQEEWECLDAVQRDLYKDVMLENYSNLVSLGYTIPKPDVITLLEQEKEPW
B24: DOMAIN_32286 (protein, listed as Homo sapiens)
chain: DTVVFEDVVVDFTLEEWALLNPAQRKLYRDVMLETFKHLASVDNEAQLKASGSISQQDTSGEKLSLKQKIEKFTRKNIWA
B25: DOMAIN_32312 (protein, listed as Homo sapiens)
chain: GSLEEGRRATGLPAAQVQEPVTFKDVAVDFTQEEWGQLDLVQRTLYRDVMLETYGHLLSVGNQIAKPEVISLLEQGEEPW
B26: DOMAIN_32321 (protein, listed as Homo sapiens)
chain: TQPDEDLHLQAEETQLVKESVTFKDVAIDFTLEEWRLMDPTQRNLHKDVMLENYRNLVSLGLAVSKPDMISHLENGKGPW
B27: DOMAIN_32334 (protein, listed as Homo sapiens)
chain: EPLKFRDVAIEFSLEEWQCLDTIQQNLYRNVMLENYRNLVFLGIVVSKPDLITCLEQEKEPWTRKRHRMVAEPPVICSHF
B28: DOMAIN_1378 (protein, listed as Gorilla sp.)
chain: MHLTAWPQKSVTFEDVAVYFTQAEWDGLSPAQRALYRDVMLENYGNVASLGFPLLKPAVISQLEGGGELGGPSPLAAGTGL
B29: DOMAIN_32351 (protein, listed as Homo sapiens)
chain: RVLTFRDVAVEFSPEEWECLDSAQQRLYRDVMLENYGNLFSLGLAIFKPDLITYLEQRKEPWNARRQKTVAKHPAGSLHF
B30: DOMAIN_32386 (protein, listed as Homo sapiens)
chain: NMEGLVMFQDLSIDFSQEEWECLDAAQKDLYRDVMMENYSSLVSLGLSIPKPDVISLLEQGKEPWMVSRDVLGGWCRDSE
B31: DOMAIN_1381 (protein, listed as Gorilla sp.)
chain: MAAMPLKARYQEMVTFEDVAVHFTKTEWTGLSPAQRALYRSVMLENFGNLTALGYPVPKPALISLLEGGDMAWGLEAQDDP
B32: DOMAIN_1382 (protein, listed as Gorilla sp.)
chain: MPLKARYQEMVTFEDVAVHFTKTEWTGLSPAQRALYRSVMLENFGNLTALGYPVPKPALISLLEGGDMAWGLEAQDDPPAE
B33: DOMAIN_1457 (protein, listed as Gorilla sp.)
chain: MGPLQFKDVAIEFSLEEWHCLDTAQRNLYRDVMLENYRNLVFLGIVVSKPDLIARLEQGKKPLTMKRHEMVANPSGPGVVV
B34: DOMAIN_1523 (protein, listed as Gorilla sp.)
chain: EELVGQNHGMEGEACTGGDVTFSDVAIDFSHEEWACLDTAQRDLYKDVMVQNYENLVSVGLSVTKPYVIMLLEDGKEPWMM
B35: DOMAIN_1539 (protein, listed as Gorilla sp.)
chain: MIEYQIPVSFKDVVVGFTQEEWHRLSPAQRALYRDVMLETYSNLVSVGYEGTKPDVILRLEQEEAPWIGEAACPGCHCWGK
B36: DOMAIN_1561 (protein, listed as Gorilla sp.)
chain: MNMEGLVMFQDLSIDFSQEEWECLDAAQKDLYRDVMMENYSSLVSLGLSIPKPDVISLLEQGKEPWMVSRDVLGGWCRGLE
B37: DOMAIN_1565 (protein, listed as Gorilla sp.)
chain: LAPEDHGSSYEGSVSFRDVAIDFSREEWRHLDPSQRNLYRDVMLETYSHLLSVGYQVPEAEVVMLEQGKEPWALQGERPRQ

Tested on: HBEGF locus
Format: cell-based, human
[1] = fold change in abundance of each repressor domain in the dXR library before vs after diphtheria toxin selection, dXR repression of the HBEGF gene, domains meeting p-value <0.01 and log2(fold change) >2
[2] = high-throughput screen of dXR repression of the HBEGF gene, change in abundance of each domain in the library before and after diphtheria toxin selection

| Molecule | Log2 (fold change) [1] | Log2 (fold change) [2] |
| --- | --- | --- |
| B1 | 3.4689 |  |
| B2 | 3.1911 |  |
| B3 |  | 2.1795 |
| B4 | 3.4739 |  |
| B5 | 3.4528 |  |
| B6 | 2.2807 |  |
| B7 | 3.3088 |  |
| B8 | 3.0766 |  |
| B9 | 2.3322 |  |
| B10 | 2.7293 |  |
| B11 | 2.1216 |  |
| B12 |  | 2.7144 |
| B13 | 2.2828 |  |
| B14 | 2.1919 |  |
| B15 | 2.0254 |  |
| B16 | 4.8007 |  |
| B17 | 3.7547 |  |
| B18 | 3.1866 |  |
| B19 | 2.7628 |  |

| Molecule | Log2 (fold change) [1] | Log2 (fold change) [2] |
| --- | --- | --- |
| B20 |  | 2.9622 |
| B21 | 2.7874 |  |
| B22 | 3.2653 |  |
| B23 | 2.4917 |  |
| B24 | 2.8921 |  |
| B25 | 2.9151 |  |
| B26 | 3.0441 |  |
| B27 | 2.8117 |  |
| B28 |  | 3.2279 |
| B29 | 2.0727 |  |
| B30 | 3.5521 |  |
| B31 |  | 4.1424 |
| B32 |  | 3.0579 |
| B33 |  | 2.6896 |
| B34 |  | 2.8607 |
| B35 |  | 2.9337 |
| B36 |  | 2.8783 |
| B37 |  | 2.771 |

Source: patent US12551573B2, “Compositions and methods for the targeting of PCSK9” (Scribe Therapeutics Inc., priority 2022, dated 2026)
